From PubChem BioAssay AID651820 (National Center for Advancing Translational Sciences (NCATS), 2012)
Screen size: about 340,000 compounds; about 12,000 (3.5%) were called active. Inconclusive results, whose numbers are uncertain, are shown with a selection of clear calls. Calls come from the whole dose curve; as a rule, active = well fitted inhibition curve with a large enough effect; inconclusive = small, poorly fitted or top-dose-only effect, or another doubt; inactive = no such curve, though single readings can be large or run the other way. No potency is given beside an inconclusive call; the fits are too rough. A structure can be active in one record and inactive in another.

Experiment: qHTS Assay for Inhibitors of Hepatitis C Virus (HCV)
Settings: Huh7.5.1 HCVcc-Cre (HCVcc is cell-culture hepatitis C virus) infection, luciferase reporter, 44 h; activity change, negative = inhibition: at 41.8 µM (top of the series) unless noted
Procedure, shortened: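 Luciferase read-out (15 sec integration) after a 15 min room-temperature substrate step quantifies HCVcc-Cre infection. Cells, 1,000 per well, had compound added 4 h post-plating, then virus at ~0.5 moi, and were cultured 44 h.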
% is set by controls: 0 for no effect and ±100 for the full control effect; potency is the fitted concentration of half-maximal effect; tags give direction and shape of the fitted curve.

Row | SMILES | Potency | activity change, negative = inhibition
1 | CCN(CC)S(=O)(=O)c1ccc(N2CCOCC2)c(NC(=O)C(C)Oc2ccc(F)cc2)c1 (centres undefined) | inconclusive [inhibitor, single point] | –
2 | Nc1c(CO)nnn1-c1ccccc1 | – | inactive: 26.7%
3 | Cc1cc2c(cc1C)CSC(c1ccc3ccccc3c1O)SC2 | – | inactive: -14.3%
4 | CC(CN1CCOCC1)C(=O)O (centres undefined) | – | inactive: 9.66%
5 | CCOC(=O)c1c(C)n(C)c2ccc(OCC(O)CN(CC)CC)cc12 (centres undefined) | inconclusive [inhibitor, full curve] | –
6 | O=C(c1cccs1)c1cn(Cc2ccccc2Cl)c2ccccc12 | inconclusive [inhibitor, single point] | –
7 | COc1ccc(C(=O)c2oc3ccccc3c2NC(C)=O)cc1 | active: 6.31 µM | –
8 | COC(=O)c1ccc(COC(=O)CCC(=O)c2cccs2)cc1 | – | inactive: 15.6%
9 | CN(C)CCNc1nc2c(c(=O)[nH]c(=O)n2C)n1CC(O)COc1ccc(Cl)cc1 (centres undefined) | – | inactive: -0.724%
10 | CCCCN(C)CCCNC(=O)c1cc(Nc2ccc(OC)c(OC)c2)nc2ccccc12 | inconclusive [inhibitor, partial curve] | –
11 | Cc1ccc(-c2cc(C(=O)Nc3cnn(C(C)C)c3)no2)cc1 | inconclusive [inhibitor, single point] | –
12 | COc1ccc(C(=O)n2nc(C)cc2Nc2ccccc2)cc1 | inconclusive [inhibitor, single point] | –
13 | CCOc1ccc(C(C(=O)NCC2CCCO2)N(CCc2cccc(C)c2)C(=O)c2snc(C(N)=O)c2N)cc1 (centres undefined) | inconclusive [inhibitor, single point] | –
14 | O=C(Nc1ccc(Cl)c(S(=O)(=O)N2CCCCC2)c1)c1cnccn1 | – | inactive: -8.45%
15 | Cc1ccc(S(=O)(=O)Nc2c(C)n(C)n(-c3ccccc3)c2=O)cc1C(=O)NCc1ccco1 | active: 31.6 µM | –
16 | O=Nc1c(O)n(Cc2cccc(C(F)(F)F)c2)c2ccccc12 | inconclusive [inhibitor, single point] | –
17 | CCCNC(=S)Nc1ccc(Nc2ccccc2)cc1 | inconclusive [inhibitor, partial curve] | –
18 | COc1ccc(NC(=O)C2CCCN(S(=O)(=O)c3ccc4c(c3)CCCN4C(C)=O)C2)cc1 (centres undefined) | inconclusive [inhibitor, single point] | –
19 | CC1=C(C(=O)OC(C)C)C(c2ccc(C)o2)C(C(=O)OC(C)C)=C(C)N1 | – | inactive: 0.965%
20 | COCCn1c(C)cc(C(=O)CSc2n[nH]c(N)n2)c1C | – | inactive: 16.5%
21 | CN(C)S(=O)(=O)c1cccc(NC(=S)N2CCc3ccccc32)c1 | inconclusive [inhibitor, single point] | –
22 | COc1ccc(Cl)cc1NC(=O)CCn1cnc2ccccc2c1=O | active: 11.2 µM | –
23 | CCc1cccc2c(C(=O)CN3C(=O)NC4(CCCCC4)C3=O)c[nH]c12 | inconclusive [inhibitor, partial curve] | –
24 | O=C(O)CCC(=O)Nc1ccccc1C(=O)Nc1ccccc1 | – | inactive: 13.2%
25 | Cc1ccc([N+](=O)[O-])c(C(=O)N/N=C/c2cccs2)c1 | – | inactive: 4.74%

Row | SMILES | Potency | activity change, negative = inhibition
26 | Cc1oc2ccc(OCC(N)=O)cc2c1C(=O)OC(C)C | inconclusive [inhibitor, partial curve] | –
27 | COC(=O)[C@@H]1C[C@]2(OC(=O)c3ccccc3)C=CC(=O)C[C@@H]2N1C(=O)OCc1ccccc1 | inconclusive [inhibitor, single point] | –
28 | CCCc1ccc(-c2cc(NC(=O)CSc3n[nH]c(N)n3)n(-c3ccccc3)n2)cc1 | inconclusive [inhibitor, partial curve] | –
29 | CN(C)C(=O)c1cc(C(=O)c2ccc(C(F)(F)F)cc2)c[nH]1 | inconclusive [inhibitor, partial curve] | –
30 | CCOC(=O)c1oc2ccc(S(=O)(=O)Nc3ccc4c(c3)n(C)c(=O)n4C)cc2c1C | inconclusive [inhibitor, partial curve] | –
31 | Cc1cc(C(=O)COC(=O)c2ccc(O)cc2O)c(C)n1-c1ccccc1 | inconclusive [inhibitor, full curve] | –
32 | Cc1ccc(NC(=O)c2ccco2)cc1NC(=O)CSc1nnc(-c2cccs2)n1C | inconclusive [inhibitor, partial curve] | –
33 | CC(C)(C)NC(=O)COC(=O)c1c2c(nc3ccccc13)CCC2 | inconclusive [inhibitor, partial curve] | –
34 | CCCCNC(=O)Nc1ccc(C2SCCS2)cc1 | – | inconclusive: -57.7% [inhibitor]
35 | COc1cc([N+](=O)[O-])ccc1NC(=O)NN1CCN(C)CC1 | – | inactive: -2.44%
36 | O=C(NCCc1ccccc1)C1CCCN1C(=O)Nc1ccccc1 (centres undefined) | – | inactive: -5.47%
37 | CSc1ccc(C(=O)c2[nH]c(=O)[nH]c2C)cc1 | active: 6.31 µM | –
38 | CC(C)(C)c1ccc(C(=O)O/N=C(\N)c2ccccc2)cc1 | inconclusive [inhibitor, single point] | –
39 | Cc1cc(NC(=O)c2cc3ccccc3o2)ccc1NC(=O)c1ccccc1 | inconclusive [inhibitor, partial curve] | –
40 | O=C(Nc1ccc(F)cc1F)c1csc(-c2ccccc2)n1 | inconclusive [inhibitor, partial curve] | –
41 | COc1ccc(NC(=O)C2CCCCN2N)cc1OC (centres undefined) | – | inactive: 2.76%
42 | CCOc1ccccc1NC(=O)COc1cccc(-n2cnnn2)c1 | inconclusive [inhibitor, partial curve] | –
43 | CCCc1ccc(-c2csc(NC(=O)Cc3cccs3)n2)cc1 | inconclusive [inhibitor, full curve] | –
44 | N#Cc1nc(-c2cccc3ccccc23)oc1NCC1CCCO1 (centres undefined) | inconclusive [inhibitor, single point] | –
45 | CCCCCC(=O)N=Nc1c(O)[nH]c2ccc([N+](=O)[O-])cc12 | inconclusive [inhibitor, single point] | –
46 | N#CCSc1ccccc1NC(=O)COC(=O)Cc1c[nH]c2ccccc12 | – | inactive: -1.26%
47 | O=C(NCCCn1ccnc1)c1ccc(-c2cccc(Cl)c2Cl)o1 | inconclusive [inhibitor, single point] | –
48 | Cc1cc(/C=C2\Sc3ccccc3N2C)cc(C)[n+]1CC1CCCO1 (centres undefined) | active: 2.51 µM | –
49 | CCOc1ccc(NC(=O)CSc2nc(C)cc(C)n2)cc1 | inconclusive [inhibitor, partial curve] | –
50 | CCOC(=O)C1CCN(Cc2ccc(F)cc2)CC1 | – | inactive: 11.9%

Row | SMILES | Potency | activity change, negative = inhibition
51 | Cn1c(=O)c(-[n+]2ccccc2)c([O-])c2ccccc21 | inconclusive [inhibitor, single point] | –
52 | Cc1ccccc1C(=O)NNC(=O)c1ccc(Br)cc1 | inconclusive [inhibitor, single point] | –
53 | CCCCN1C(=O)C(O)(CC(=O)c2c(C)coc2C)c2ccccc21 (centres undefined) | – | inactive: 4.58%
54 | O=C(NCc1ccc2c(c1)OCO2)Nc1ccc2ccccc2c1 | – | inactive: 20.5%
55 | CCOc1cc(/C=C(\C#N)C(=O)Nc2ccccn2)ccc1O | inconclusive [inhibitor, single point] | –
56 | CCCC(=O)Nc1cccc(NC(=O)c2cccc([N+](=O)[O-])c2C)c1 | active: 7.94 µM | –
57 | COc1ccc(N(CC(=O)NCCc2ccc(C)cc2)S(=O)(=O)c2c(C)noc2C)cc1 | inconclusive [inhibitor, single point] | –
58 | CCCC(=NCCc1c(C)[nH]c2ccccc12)C1=C(O)CC(c2ccccc2)CC1=O (centres undefined) | inconclusive [inhibitor, partial curve, poor fit] | –
59 | COC(=O)CSc1nccc(-c2ccc(F)cc2)c1C#N | inconclusive [inhibitor, single point] | –
60 | Nc1c(S(=O)(=O)c2ccccc2)c2nc3ccccc3nc2n1C1CC1 | – | inactive: 19.7%
61 | CCOC(=O)c1ccc(NC(=O)N2CCN(CCc3ccccc3)CC2)cc1 | inconclusive [inhibitor, full curve] | –
62 | COc1cccc(-c2nc(CS(=O)(=O)CC(=O)NCCc3ccc(OC)c(OC)c3)c(C)o2)c1 | inconclusive [inhibitor, partial curve] | –
63 | CC1=C(C(=O)Nc2ccccc2C)C(c2ccc(C)o2)N2C(=O)CSC2=N1 (centres undefined) | inconclusive [inhibitor, single point] | –
64 | Cc1cccc(C(=O)Nc2cccc(C(=O)N3CCOCC3)c2)c1 | – | inactive: 2.43%
65 | CC1OC(Oc2c(-c3cc(O)c(O)c(O)c3)oc3cc(O)cc(O)c3c2=O)C(O)C(O)C1O (centres undefined) | – | inactive: 6.49%
66 | C=CCOc1c(Cl)cc(C(=S)N2CCCC2)cc1OCC | inconclusive [inhibitor, single point] | –
67 | CC1(C)Cc2c(cnn2-c2cccc(F)c2)C(NC(=O)C2CCOCC2)C1 (centres undefined) | – | inactive: 13.8%
68 | Cc1cc(-c2nn3c(-c4ccccc4)nnc3s2)c2ccccc2n1 | inconclusive [inhibitor, full curve] | –
69 | NS(=O)(=O)c1ccc(CCNC(=O)CCCn2c(SCC(=O)N3CCCC3)nc3ccsc3c2=O)cc1 | active: 2 µM | –
70 | COC(=O)Nc1ccc(Cc2ccncc2)cc1 | – | inactive: 28.8%
71 | CC(C)OCCCn1c(SCC(=O)Nc2ccccc2C(F)(F)F)nc2nccnc2c1=O | – | inactive: 6.21%
72 | Cn1ccnc1-c1nnn(-c2ccc(Cl)c(Cl)c2)n1 | inconclusive [inhibitor, single point] | –
73 | O=C(Nc1ccccc1Cl)NC1(C(=O)NCCCN2CCOCC2)CCCCC1 | – | inactive: 14.8%
74 | CCOC(=O)C1=C(CN2CCC(C)CC2)NC(=O)NC1c1ccc(Cl)cc1 (centres undefined) | inconclusive [inhibitor, partial curve] | –
